In all, about 33,000 sequences were measured (“E-score (-0.5 to 0.5)”: median about -0.013, highest 2% from about 0.3 on). The list shows a part of the results.
biological target: T1, Msn1 (UniProt P22148); test: PBM E-score (8-mer binding enrichment) (E-score (-0.5 to 0.5)); higher = stronger / more preferred TF binding; most listed sequences are background and not binding sites; conditions: protein concentration: 200 nM; construct: GST-full length
T1 sequence: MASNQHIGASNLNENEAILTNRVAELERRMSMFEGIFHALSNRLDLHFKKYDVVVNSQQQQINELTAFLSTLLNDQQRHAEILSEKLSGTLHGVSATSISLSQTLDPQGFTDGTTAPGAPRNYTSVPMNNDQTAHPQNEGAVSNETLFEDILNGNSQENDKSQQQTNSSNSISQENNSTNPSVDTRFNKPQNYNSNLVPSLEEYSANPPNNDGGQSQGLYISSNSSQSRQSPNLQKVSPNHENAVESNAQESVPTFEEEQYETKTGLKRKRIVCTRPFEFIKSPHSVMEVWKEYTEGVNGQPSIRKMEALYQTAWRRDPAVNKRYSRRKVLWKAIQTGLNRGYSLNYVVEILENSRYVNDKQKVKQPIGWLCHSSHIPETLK
Method in brief: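 For each ungapped eight-base word taken together with its reverse complement, the Universal PBM Analysis Suite assigned an E-score. Binding data came from GST-tagged yeast transcription factors, applied at about 100-200 nM, on universal all-10-mer Agilent arrays made double-stranded by primer extension. Fluorescent anti-GST marked bound protein, and scans were normalised with masliner.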

Row | Sequence | PBM E-score
1 | CCTGTCTA | 0.143
2 | CGGTGAGC | -0.0731
3 | ATAGTGTC | 0.0883
4 | CGCTTCGC | -0.108
5 | AAGTTCAC | -0.00901
6 | CAACTCCC | -0.124
7 | AGTTCACG | 0.0486
8 | CCTGGCGC | -0.165
9 | CCGAGAAG | -0.0277
10 | CCGACAAA | 0.42
11 | ATATTCTC | 0.0936
12 | CATATGAC | 0.143
13 | GAGTTACA | -0.0116
14 | CATTATGC | -0.00798
15 | AGTGAAAC | 0.0644
16 | CCCATATA | 0.0528
17 | GGGACACA | 0.449
18 | CCCATCCG | -0.247
19 | CATCACCG | -0.0162
20 | CGGATCTC | 0.157
21 | TCTGAAAA | 0.152
22 | CATATAAA | 0.0972

Row | Sequence | PBM E-score
23 | GAGCCACC | -0.235
24 | ATGCAAAA | 0.241
25 | CCTCGAAC | -0.0615
26 | CTCTCGGA | 0.142
27 | GCACTTCA | 0.0175
28 | CATCATGC | -0.00249
29 | AAGCGGAA | 0.163
30 | GTAAGCCA | -0.325
31 | AAGTCCAT | 0.262
32 | GACGCAAC | 0.046
33 | ATCCATCC | 0.0837
34 | ACAAGGTC | -0.0442
35 | ATTTCTTG | 0.177
36 | GCACCAGC | -0.185
37 | GCCGCTCA | -0.178
38 | GTAAACTA | 0.00578
39 | CGGCCCTA | 0.0225
40 | GTGTTCCA | -0.131
41 | CCAAGTTC | -0.198
42 | GTTAATCA | 0.188
43 | CAACGAAA | 0.0881
44 | ACGGGAGG | -0.268

Row | Sequence | PBM E-score
45 | ATTAGGAC | 0.37
46 | TCTTACAA | 0.0399
47 | AGTTGCGG | 0.164
48 | ACAGTTAA | -0.0448
49 | ACGCCCTA | -0.236
50 | AGCCGTGA | 0.0413
51 | CTTAGTAC | 0.0335
52 | AGAGGTGA | -0.00856
53 | ATCCAGAC | 0.0593
54 | GCACCAAA | -0.064
55 | GAAAACAC | 0.0633
56 | AGTCAACG | -0.13
57 | AGTTAATC | 0.00637
58 | ATGGAACG | -0.158
59 | CGTATAAG | -0.0644
60 | ATCTGACG | -0.0857
61 | AATAGATT | 0.0301
62 | CGATTAAG | 0.0824
63 | CACCCTAG | -0.0115
64 | ACGACAGC | -0.0167
65 | ATAATGTG | -0.0687
66 | ATCGCATG | 0.116

Row | Sequence | PBM E-score
67 | AAGATACT | -0.088
68 | AATGTGGC | -0.0487
69 | GCGAGCGA | 0.0627
70 | ACCCTCAG | 0.0884
71 | AGGAGTTG | -0.0847
72 | CAAAGCCC | -0.0732
73 | ACGTGGAC | 0.172
74 | ACCGGACA | 0.306
75 | CGGCTAGA | -0.107
76 | AAGCATAT | -0.0831
77 | AACCTTCA | -0.111
78 | AAGTCTAC | 0.0709
79 | CCGCACTC | -0.065
80 | ATAAATTC | 0.129
81 | AACAAGGT | -0.114
82 | TACTCCCA | 0.0828
83 | CAGGCTAC | -0.111
84 | CGCATATC | 0.12
85 | CTGGTCAC | 0.0333
86 | CCACACCC | -0.196

Reference: the supplement of paper PMC3334620
